The source of these data is the GPR68 mutational scans of Howard et al. (2025).

The least precise scores are not listed. Two further conditions of the source, in which the scores hardly spread, are not listed. Names with del lack the residues named; names with ins carry added residues between the positions named. For part of these data: The concentration of ogerin is not given here.

To fix the notation:
B1: GPR68, Q15743 (parent)
chain: MGNITADNSSMSCTIDHTIHQTLAPVVYVTVLVVGFPANCLSLYFGYLQIKARNELGVYLCNLTVADLFYICSLPFWLQYVLQHDNWSHGDLSCQVCGILLYENIYISVGFLCCISVDRYLAVAHPFRFHQFRTLKAAVGVSVVIWAKELLTSIYFLMHEEVIEDENQHRVCFEHYPIQAWQRAINYYRFLVGFLFPICLLLASYQGILRAVRRSHGTQKSRKDQIQRLVLSTVVIFLACFLPYHVLLLVRSVWEASCDFAKGVFNAYHFSLLLTSFNCVADPVLYCFVSETTHRDLARLRGACLAFLTCSRTGRAREAYPLGAPEASGKSGAQGEEPELLTKLHPAFQTPNSPGSGGFPTGRLA

Variants of B1 are the subject of series [1]. Nature of the series: cAMP reporter score (Enrich2 score, wild type = 0); higher = more signal; HEK293T, FACS bins.
The variants in series [2] derive from B1. Put plainly: surface expression score (Enrich2 score, wild type = 0); higher = more signal; HEK293T, FACS bins.

With N86C, the cAMP reporter score is -1.62 in series [1] (pH 5.5); -1.17 in series [1] (pH 6); -1.3 in series [1] (pH 6, modulator: ogerin); -1.04 in series [1] (pH 6.5, modulator: ogerin). Besides, in series [2], the surface expression score came to 0.207.

In the case of N86I, the cAMP reporter score in series [1] (pH 5.5) was -0.945; in series [1] (pH 6, modulator: ogerin), -2.45; in series [1] (pH 6.5, modulator: ogerin), -1.13. Further, the surface expression score in series [2] is -1.2.

Turning to N86Q, the cAMP reporter score in series [1] (pH 5.5) was -1.55; in series [1] (pH 6), -0.413; in series [1] (pH 6, modulator: ogerin), -1; in series [1] (pH 6.5, modulator: ogerin), -0.428. Besides, the surface expression score in series [2] worked out at 1.34.

As to N86G, the cAMP reporter score in series [1] (pH 5.5) was -1.51; in series [1] (pH 6) it was -0.285; in series [1] (pH 6, modulator: ogerin), -0.883; in series [1] (pH 6.5, modulator: ogerin), -0.574. Further, in series [2], the surface expression score is 0.42.

For N86K, the cAMP reporter score in series [1] (pH 5.5) was -1.68; in series [1] (pH 6) it was 0.68; in series [1] (pH 6, modulator: ogerin), -2.14; in series [1] (pH 6.5, modulator: ogerin) it was -1.41. The surface expression score in series [2] was 0.573.

As for N86H, the cAMP reporter score in series [1] (pH 5.5) was 1.46; in series [1] (pH 6, modulator: ogerin) it was 0.087; in series [1] (pH 6.5, modulator: ogerin) it was 2.96. The surface expression score in series [2] was -0.753.

Consider N86E, for which the cAMP reporter score in series [1] (pH 5.5) was -0.808; in series [1] (pH 6), -1.79; in series [1] (pH 6, modulator: ogerin) it was -2.5; in series [1] (pH 6.5, modulator: ogerin), -0.136. For the same variant, the surface expression score in series [2] amounted to 0.002.

Consider N86M, for which the cAMP reporter score in series [1] (pH 5.5) is -1.89; in series [1] (pH 6) it was -1.72; in series [1] (pH 6.5, modulator: ogerin), -1.25. In addition, the surface expression score in series [2] was -0.644.

Consider N86A, for which the cAMP reporter score in series [1] (pH 5.5) was -1.02; in series [1] (pH 6) it was -0.914; in series [1] (pH 6, modulator: ogerin), -0.695; in series [1] (pH 6.5, modulator: ogerin), -1.27. The surface expression score in series [2] came to 0.259.

Take D91_S93del: the figures for the cAMP reporter score in series [1] (pH 5.5) and in series [1] (pH 6) were -0.889 and -0.874, respectively. Further, in series [2], the surface expression score was -0.277.

For N86_W87insGSG, the cAMP reporter score is -1.05 in series [1] (pH 5.5); -0.136 in series [1] (pH 6); -0.967 in series [1] (pH 6, modulator: ogerin); -0.607 in series [1] (pH 6.5, modulator: ogerin). Further, the surface expression score in series [2] is 1.15.

In the case of G90_D91insGS, the cAMP reporter score was -0.457 in series [1] (pH 5.5); 0.028 in series [1] (pH 6, modulator: ogerin); -1.15 in series [1] (pH 6.5, modulator: ogerin). Further, the surface expression score in series [2] was -0.427.

Regarding N86_W87del, the cAMP reporter score in series [1] (pH 5.5) was -1.87; in series [1] (pH 6), 0.608; in series [1] (pH 6, modulator: ogerin), -1.71; in series [1] (pH 6.5, modulator: ogerin), -0.571. In addition, in series [2], the surface expression score was -0.766.

On to H89G, for which the cAMP reporter score in series [1] (pH 5.5) is 0.212; in series [1] (pH 6) it was 0.639; in series [1] (pH 6, modulator: ogerin) it was -0.395; in series [1] (pH 6.5, modulator: ogerin), 0.934. Further, the surface expression score in series [2] worked out at 0.551.

Take H89E: the cAMP reporter score is -1.14 in series [1] (pH 5.5); -1.17 in series [1] (pH 6); -0.826 in series [1] (pH 6.5, modulator: ogerin). In addition, the surface expression score in series [2] was 0.734.

As to H89I, the cAMP reporter score is 0.316 in series [1] (pH 5.5); -0.817 in series [1] (pH 6); 0.37 in series [1] (pH 6, modulator: ogerin); -0.997 in series [1] (pH 6.5, modulator: ogerin). Further, the surface expression score in series [2] was found to be 1.19.

For H89M, the cAMP reporter score in series [1] (pH 5.5) is 0.443; in series [1] (pH 6), 0.757; in series [1] (pH 6, modulator: ogerin), 0.621; in series [1] (pH 6.5, modulator: ogerin), 1.05. Besides, in series [2], the surface expression score stood at 0.266.

Take H89L: the cAMP reporter score in series [1] (pH 5.5) amounted to 0.17; in series [1] (pH 6) it was 1.25; in series [1] (pH 6, modulator: ogerin) it was 0.839; in series [1] (pH 6.5, modulator: ogerin) it was 1.33. In addition, the surface expression score in series [2] is -0.728.

On to H89K, for which the cAMP reporter score is -1.18 in series [1] (pH 5.5); 1.46 in series [1] (pH 6); -0.662 in series [1] (pH 6.5, modulator: ogerin). The surface expression score in series [2] is 1.15.

For the variant H89N, the cAMP reporter score in series [1] (pH 5.5) was 0.388; in series [1] (pH 6), 0.899; in series [1] (pH 6, modulator: ogerin) it was -0.984; in series [1] (pH 6.5, modulator: ogerin), -0.498. Further, the surface expression score in series [2] was 1.01.

Turning to H89P, the cAMP reporter score is -1.01 in series [1] (pH 5.5); -1.06 in series [1] (pH 6); -2.91 in series [1] (pH 6, modulator: ogerin); -0.611 in series [1] (pH 6.5, modulator: ogerin). Further, the surface expression score in series [2] was -0.934.

On to H89T, for which the cAMP reporter score in series [1] (pH 5.5) was 0.583; in series [1] (pH 6) it was -0.775; in series [1] (pH 6, modulator: ogerin), 0.06; in series [1] (pH 6.5, modulator: ogerin) it was -0.895. Further, the surface expression score in series [2] amounted to 1.16.

H89A: the cAMP reporter score in series [1] (pH 5.5) was -0.806; in series [1] (pH 6) it was -1; in series [1] (pH 6, modulator: ogerin), -1.38; in series [1] (pH 6.5, modulator: ogerin), -1.23. The surface expression score in series [2] was found to be 0.886.

With H89Y, the cAMP reporter score in series [1] (pH 5.5) was -0.174; in series [1] (pH 6), -0.433; in series [1] (pH 6, modulator: ogerin), -0.531; in series [1] (pH 6.5, modulator: ogerin), -0.761. Further, the surface expression score in series [2] was -0.624.

For H89D, the cAMP reporter score was -0.842 in series [1] (pH 5.5); -1.08 in series [1] (pH 6); -1.04 in series [1] (pH 6, modulator: ogerin); -1.17 in series [1] (pH 6.5, modulator: ogerin). Further, the surface expression score in series [2] stood at 0.327.

In the case of H89Q, the cAMP reporter score in series [1] (pH 5.5) is -0.539; in series [1] (pH 6) it was -1.19; in series [1] (pH 6, modulator: ogerin), -1.3; in series [1] (pH 6.5, modulator: ogerin) it was -1.36. Besides, the surface expression score in series [2] was found to be 1.07.

Regarding H89S, the cAMP reporter score in series [1] (pH 5.5) is -0.563; in series [1] (pH 6), -0.54; in series [1] (pH 6, modulator: ogerin), -1.07; in series [1] (pH 6.5, modulator: ogerin), -1.27. Also, in series [2], the surface expression score turned out to be 0.38.

Consider H89R, for which the cAMP reporter score was -1.03 in series [1] (pH 5.5); 0.156 in series [1] (pH 6); -0.941 in series [1] (pH 6, modulator: ogerin); -0.722 in series [1] (pH 6.5, modulator: ogerin). Moreover, in series [2], the surface expression score was found to be 0.408.

On to H89W, for which the cAMP reporter score stood at 1.37 in series [1] (pH 5.5); 3.06 in series [1] (pH 6); 1.03 in series [1] (pH 6, modulator: ogerin); 3.35 in series [1] (pH 6.5, modulator: ogerin). Moreover, the surface expression score in series [2] turned out to be 0.316.

As to H89C, the cAMP reporter score in series [1] (pH 5.5) is -1.39; in series [1] (pH 6) it was -0.034; in series [1] (pH 6, modulator: ogerin) it was -2.48; in series [1] (pH 6.5, modulator: ogerin), -0.964. The surface expression score in series [2] was 0.212.

Regarding H89F, the cAMP reporter score in series [1] (pH 5.5) was determined as 0.195; in series [1] (pH 6), 1.51; in series [1] (pH 6, modulator: ogerin), 0.275; in series [1] (pH 6.5, modulator: ogerin), 1.71. For the same variant, in series [2], the surface expression score is -0.644.

Turning to H89V, the cAMP reporter score in series [1] (pH 5.5) was -0.94; in series [1] (pH 6.5, modulator: ogerin), -0.553. Moreover, the surface expression score in series [2] stood at 1.1.
